Reference: PubChem BioAssay AID1460 (National Center for Advancing Translational Sciences (NCATS), 2008)
Screen size: about 270,000 compounds; about 5,800 (2.1%) were called active. The inconclusive results got no clear call from the source; some entries with a clear call stand among them for comparison. The call rests on the fitted dose curve; in most records, active means well fitted inhibition curve with a large enough effect; inconclusive means small, poorly fitted or top-dose-only effect; inactive means flat fitted curve, though single readings scatter. Potencies beside an inconclusive call are fits to weak or partial responses and may not hold up.

Target: Microtubule-associated protein tau (Homo sapiens) (UniProt P10636)
Assay: qHTS for Inhibitors of Tau Fibril Formation, Thioflavin T Binding; further: nearly all actives have a fitted effect of over 55% in size
Settings: recombinant tau K18 P301L (four-repeat tau fragment), heparin-induced fibrillization, ThT fluorescence; series mostly up to 57.4 µM; activity, negative = inhibition: at the top concentration
Outline: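 Tau K18 P301L fragment (15 uM unlabeled plus 0.24 uM Alexa 594-labeled) in 100 mM sodium acetate pH 7 with compound, fibrillization induced by 20 uM heparin for 6 hr at 37 C. Thioflavin T (30 uM) added, fluorescence read after 1 hr (ex 450, em 510 nm).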
On the % scale 0 is the no-effect control and ±100 the full control effect; potency means the concentration at half of the fitted maximal effect; tags describe the fitted curve by direction and shape.

Sequence of UniProt P10636 (P10636 whole entry, looked up): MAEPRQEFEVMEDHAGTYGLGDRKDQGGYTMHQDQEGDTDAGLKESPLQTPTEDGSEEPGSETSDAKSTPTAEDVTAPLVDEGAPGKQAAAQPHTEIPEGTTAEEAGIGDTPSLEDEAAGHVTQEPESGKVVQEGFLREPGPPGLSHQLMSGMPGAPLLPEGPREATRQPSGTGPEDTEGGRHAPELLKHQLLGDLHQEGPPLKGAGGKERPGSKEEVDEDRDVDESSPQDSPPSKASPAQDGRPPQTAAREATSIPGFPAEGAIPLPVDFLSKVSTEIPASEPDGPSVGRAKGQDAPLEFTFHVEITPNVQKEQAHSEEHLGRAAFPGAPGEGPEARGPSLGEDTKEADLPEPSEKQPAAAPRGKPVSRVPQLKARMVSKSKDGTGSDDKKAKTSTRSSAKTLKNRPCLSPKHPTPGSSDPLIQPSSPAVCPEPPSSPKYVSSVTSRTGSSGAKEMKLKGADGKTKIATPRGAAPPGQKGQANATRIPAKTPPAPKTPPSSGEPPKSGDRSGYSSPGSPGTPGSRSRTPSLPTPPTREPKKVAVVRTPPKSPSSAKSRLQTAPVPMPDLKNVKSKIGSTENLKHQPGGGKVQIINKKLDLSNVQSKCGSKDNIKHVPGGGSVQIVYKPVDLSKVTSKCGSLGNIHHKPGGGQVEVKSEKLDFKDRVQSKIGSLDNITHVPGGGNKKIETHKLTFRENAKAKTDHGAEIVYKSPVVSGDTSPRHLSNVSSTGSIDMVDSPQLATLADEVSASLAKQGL

SMILES	Potency	activity, negative = inhibition
CCOc1ccc(C(=O)/C=C/c2cc(OC)c(OC)c(OC)c2)cc1	inconclusive: 8.91 µM [inhibitor, partial curve]	
CCOc1ccc(-n2c(-c3ccc(Cl)cc3)c[n+]3c2SCC3)cc1	inconclusive: 31.6 µM [inhibitor, partial curve]	
CC(=O)NCCNC(=O)CCCc1nnc2n(CCC(C)C)c(=O)c3sccc3n12		inactive: -0.135%
CCOC(=O)c1c(C)[nH]c(CCC(=O)NCCCN2CCN(c3cccc(Cl)c3)CC2)c1C	inconclusive: 15.8 µM [inhibitor, partial curve]	
CC1(C)Cc2c(c(N3CCOCC3)nc3sc(C(N)=O)c(N)c23)CO1		inactive: -11.7%
COc1cc(CCC(=O)Nc2ccc(Cl)c(C(F)(F)F)c2)cc(OC)c1OC	inconclusive: 20 µM [inhibitor, single point]	
CCOc1ccc(-n2c(Cc3ccccc3)nnc2SCc2nc(-c3ccccc3C)no2)cc1		inactive: -10.1%
N#Cc1ccc(N2Cc3ccccc3C2=NC(=O)c2cccs2)cc1	inconclusive: 3.55 µM [inhibitor, full curve]	
O=C(Nc1ccc(Cl)cc1)Nc1cc(S(=O)(=O)N2CCOCC2)ccc1N1CCCC1		inactive: 0.668%
CCOC(=O)C1=C(c2ccccc2)NC(N)=NC1c1ccc(OCc2ccc(C(=O)OC)cc2)cc1 (stereo not drawn)	inconclusive: 14.1 µM [inhibitor, partial curve]	
O=C(Nc1ccccc1)/C(=C/c1ccccc1)c1ccccc1		inactive: -21.1%
COc1ccc2oc(=O)cc(CN3CCN(C(=O)c4ccccc4F)CC3)c2c1		inactive: -0.532%
CCOc1ccc(N2C(=O)CC(NNc3nc4ccccc4s3)C2=O)cc1 (stereo not drawn)	inconclusive: 10 µM [inhibitor, partial curve]	
CC(=O)c1ccc(N(C(=O)Cc2c[nH]c3ccccc23)C(C(=O)NC2CCCCC2)c2cccs2)cc1 (stereo not drawn)	inconclusive: 8.91 µM [inhibitor, partial curve]	
O=C(NC(=S)N1CCN(c2ccc([N+](=O)[O-])cc2)CC1)c1ccco1	inconclusive: 10 µM [inhibitor, partial curve]	
COC(=O)/C=C/C(=O)Nc1ccc(O)c(Cl)c1	inconclusive: 17.8 µM [inhibitor, partial curve]	
Cc1ccc(/C=C/c2nc3ccccc3c(=O)[nH]2)cc1		inactive: -13.2%
CCOC(=O)c1cc2c(ccn2C)n1CC(=O)N1CCN(c2ccccc2)CC1	inconclusive: 31.6 µM [inhibitor, single point]	
CCCN(CCC)CCCNC(=O)C1CCC(CNS(=O)(=O)c2ccc(NC(C)=O)cc2)CC1 (stereo not drawn)		inactive: -0.561%
O=C(Nc1cccc(NC(=O)N2CCN(c3ccccc3)CC2)c1)N1CCN(c2ccccc2)CC1	inconclusive: 14.1 µM [inhibitor, partial curve]	
O=C(CCN1CCC(c2ccccc2)C1)c1ccc2c(c1)OCCO2 (stereo not drawn)	inconclusive: 2.24 µM [inhibitor, full curve, poor fit]	
CCC(=O)N1CCN(c2ccc(NC(=O)COc3ccccc3[N+](=O)[O-])cc2)CC1	inconclusive: 10 µM [inhibitor, partial curve]	
Cc1cccc2nc(COc3ccc(Cl)c4cccnc34)cn12	inconclusive: 0.282 µM [inhibitor, full curve, poor fit]	

SMILES	Potency	activity, negative = inhibition
COc1ccc(OCC(=O)Nc2cccc(NC(=O)c3ccco3)c2)cc1	inconclusive: 17.8 µM [inhibitor, partial curve]	
COc1ccc(C2C(C(=O)c3ccco3)=C(O)C(=O)N2CCc2ccccc2)cc1OC (stereo not drawn)		inactive: -10.9%
O=C1CCC(/C=C/c2ccccc2)=NN1Cc1ccc(F)cc1	inconclusive: 35.5 µM [inhibitor, single point]	
C=CCn1c(SCC#N)nc2c(c1=O)C(C)(C)Cc1ccccc1-2	inconclusive: 14.1 µM [inhibitor, partial curve]	
CC12CCC3c4ccc(OCc5ccccc5)cc4CCC3C1CC(O)C2O (stereo not drawn)	inconclusive: 31.6 µM [inhibitor, partial curve]	
CCC(=O)N1CCN(c2ccc(NC(=O)c3ccc4c(c3)OCO4)cc2)CC1	inconclusive: 0.708 µM [inhibitor, partial curve]	
Cc1ccc2c(c1)C(=O)C(=O)N2CCOc1ccccc1	inconclusive: 25.1 µM [inhibitor, partial curve]	
Cc1ccc(CNc2oc(-c3ccco3)nc2S(=O)(=O)c2ccccc2)cc1		inactive: -7.14%
CCC(O)c1nc2ccccc2n1Cc1cccc(Cl)c1 (stereo not drawn)		inactive: 5.98%
Cc1ccccc1CSc1cn(CCNC(=O)c2cccs2)c2ccccc12	inconclusive: 7.94 µM [inhibitor, partial curve]	
COC(=O)c1ccc(C2Nc3c(C)cc(C)cc3C3C=CCC32)cc1 (stereo not drawn)	inconclusive: 25.1 µM [inhibitor, partial curve]	
NC(=O)C1CCN(c2cc(N3CCOCC3)ccc2[N+](=O)[O-])CC1	inconclusive: 20 µM [inhibitor, single point]	
CNC(=O)NC(=O)C(C)OC(=O)c1c2c(nc3ccccc13)/C(=C/c1cccs1)CC2 (stereo not drawn)	inconclusive: 3.55 µM [inhibitor, full curve]	
COc1ccc(-c2cnnc(N/N=C/c3ccc(C)o3)n2)cc1	active: 2.82 µM	
COc1cc(C(=O)O/N=C2\C=CC(=O)C=C2C)cc(OC)c1OC	inconclusive: 7.94 µM [inhibitor, partial curve]	
O=C(O)C(c1ccccc1)N1C(=O)/C(=C/c2cccs2)SC1=S (stereo not drawn)	inconclusive: 17.8 µM [inhibitor, partial curve]	
Nc1ncc([N+](=O)[O-])cc1Br		inactive: -0.483%
COc1ccccc1NC(=S)NNC(=O)c1nn(C)c(C)c1Br	inconclusive: 22.4 µM [inhibitor, partial curve, poor fit]	
CN=c1scc(-c2ccccc2Br)n1/N=C/c1ccc[nH]1	inconclusive: 15.8 µM [inhibitor, partial curve]	
CCCCNC(=O)/C=C/c1cccs1		inactive: 1.86%
CCOCCCNC(=O)/C(C#N)=C/c1ccc(-c2ccc(S(=O)(=O)N3CCOCC3)cc2)o1	inconclusive: 35.5 µM [inhibitor, single point]	
CC(c1ccco1)N(C(=O)c1ccccc1NS(=O)(=O)c1cccc([N+](=O)[O-])c1)c1ccccn1 (stereo not drawn)	inconclusive: 10 µM [inhibitor, partial curve]	
COc1ccc(C(=O)Nc2cccc3c2C(=O)NC3=O)cc1S(=O)(=O)N1CCOCC1		inactive: -3.67%

SMILES	Potency	activity, negative = inhibition
CC1(C)Nc2ccc(O)cc2-c2c1ssc2=S	active: 11.2 µM	
O=C(/C(=C/c1ccncc1)n1ccnc1)c1ccc(Cl)cc1Cl	inconclusive: 25.1 µM [inhibitor, partial curve, poor fit]	
CCCOc1cccc(OCCSc2nc(C)cc(=O)[nH]2)c1	inconclusive: 10 µM [inhibitor, partial curve, poor fit]	
C[C@@H]1Cc2c(O)c(O)cc(O)c2C(=O)O1	active: 31.6 µM	
CCCS(=O)(=O)c1ncc(Cl)c(C(=O)N(Cc2ccccc2)Cc2ccco2)n1	inconclusive: 6.31 µM [inhibitor, full curve]	
CCOc1ccc(-c2oc3ccccc3c(=O)c2O)cc1OCC	inconclusive: 11.2 µM [inhibitor, partial curve]	
CCCc1cc(=O)[nH]c(SCC(=O)c2c(C)[nH]c3ccccc23)n1	inconclusive: 14.1 µM [inhibitor, partial curve]	
NC(=O)/C=C/C(=O)Nc1ccc(Cl)cc1	inconclusive: 6.31 µM [inhibitor, single point]	
CCOc1ccc(NC(=O)N(CCN2CCOCC2)Cc2ccc3c(c2)CCCN3CC)cc1	inconclusive: 12.6 µM [inhibitor, partial curve]	
CNS(=O)(=O)c1cccc(C(=O)OCC(=O)N(CCC#N)c2ccccc2)c1		inactive: 4.01%
COc1cccc(/C=N/n2c(-c3ccco3)nc3ccccc3c2=O)c1	inconclusive: 25.1 µM [inhibitor, single point]	
Cn1c(=O)c2c(SCc3ccccn3)nc(CC(C)(C)C)nc2n(C)c1=O	inconclusive: 39.8 µM [inhibitor, single point]	
CCN(CC)c1ccc(C(=O)OCC(=O)Nc2ccc3[nH]c(=O)[nH]c3c2)cc1	inconclusive: 12.6 µM [inhibitor, partial curve]	
CCc1nn(CC(=O)NCCc2ccc(OC)cc2OC)c(=O)c2cc3sccc3n12		inactive: 8.65%
CCc1ccc(/C(C)=N\Nc2ccc([N+](=O)[O-])cc2)cc1	active: 3.55 µM	
Cc1c(C(=O)/C=C/N(C)C)nnn1-c1ccc(Cl)c(Cl)c1	inconclusive: 25.1 µM [inhibitor, single point]	
Cc1cc(=O)n2nc(-c3ccc(C(F)(F)F)cc3)sc2n1	inconclusive: 20 µM [inhibitor, partial curve]	
CC(C)c1ccc2c(c1)C1Cc3ccccc3C1N2 (stereo not drawn)	inconclusive: 25.1 µM [inhibitor, partial curve]	
Cc1[nH][nH]c(=O)c1C(c1ccc(-c2ccc(F)cc2)o1)c1c(C)[nH][nH]c1=O	active: 7.94 µM	
Cc1ccc(CSC2=Nc3ccccc3C3=NC(CCC(=O)N4CCN(c5ccccc5)CC4)C(=O)N23)cc1 (stereo not drawn)	inconclusive: 25.1 µM [inhibitor, partial curve]	
C/C(=N/OCC(=O)Nc1ccc(C)cc1C)c1cccs1	inconclusive: 20 µM [inhibitor, partial curve]	
CC(=O)N1N=C(c2c(-c3ccccc3)c3cc(Br)ccc3[nH]c2=O)CC1c1ccco1 (stereo not drawn)	inconclusive: 3.98 µM [inhibitor, partial curve]	
